{
  "source": "PubChem BioAssay AID2147",
  "about": "(National Center for Advancing Translational Sciences (NCATS), 2009)",
  "note": "The campaign covered roughly 230,000 compounds. About 3,600 (1.6%) were called active. Inconclusive means that the source gave no clear call. Such entries were picked first, then a sample of the others. The call rests on the fitted dose curve; in most records, active means well fitted inhibition curve with a large enough effect (not every such curve was filed as active); inconclusive means small, poorly fitted or top-dose-only effect, or another doubt; inactive means no such curve, though single readings can be large or run the other way. Potencies of inconclusive entries are doubtful fits and often do not repeat. Further: nearly all actives have a fitted effect of over 50% in size. Potency means the concentration at half of the fitted maximal effect; tags describe the fitted curve by direction and shape.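 Wherever activity change, negative = inhibition is given: 0% = wells with enzyme and -100% = buffer wells without enzyme.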",
  "data": [
    {"target": "Lysine-specific demethylase 4E (Homo sapiens) (UniProt B2RXH2)", "sequence (B2RXH2 whole entry, looked up, the tested form may be a part)": "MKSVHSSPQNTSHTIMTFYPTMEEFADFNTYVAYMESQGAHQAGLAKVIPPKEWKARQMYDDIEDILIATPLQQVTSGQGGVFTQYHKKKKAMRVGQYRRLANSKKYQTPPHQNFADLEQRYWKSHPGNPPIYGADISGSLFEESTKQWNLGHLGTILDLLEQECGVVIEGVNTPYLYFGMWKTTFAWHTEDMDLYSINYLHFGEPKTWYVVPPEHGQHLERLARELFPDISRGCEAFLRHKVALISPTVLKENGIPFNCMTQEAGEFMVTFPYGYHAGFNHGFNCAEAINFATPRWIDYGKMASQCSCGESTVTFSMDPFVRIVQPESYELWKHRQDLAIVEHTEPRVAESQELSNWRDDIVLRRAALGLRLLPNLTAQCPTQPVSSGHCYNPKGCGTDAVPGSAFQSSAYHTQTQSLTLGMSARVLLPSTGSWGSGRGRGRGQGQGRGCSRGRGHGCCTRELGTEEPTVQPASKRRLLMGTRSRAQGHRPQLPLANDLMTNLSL", "assay": "qHTS Assay for Inhibitors of Human Jumonji Domain Containing 2E (JMJD2E)", "conditions": "JMJD2E catalytic domain, FDH-coupled NADH fluorescence (FDH is formaldehyde dehydrogenase); series mostly up to 57.1 µM; activity change, negative = inhibition: at the top concentration", "text": "Assay Provider: Structural Genomics Consortium [SGC] Screening Center PI: Austin, C.P. Screening Center: NIH Chemical Genomics Center [NCGC] The fine interplay among methylation states of several lysine residues on the tails of histone proteins is a major determinant of the transcriptional state of the associated DNA coding regions and is commonly referred to as the histone code. Histone lysine demethylases catalyze the removal of methyl groups from methylated lysine sidechains on histones H3 and H4, thus antagonizing the reactions catalyzed by histone lysine methyltransferases. […] In search for novel inhibitors of JMJD2E demethylase, a member of the largest set of histone demethylases belonging to the Fe(II) and 2-oxoglutarate oxygenase (2OG) superfamily, we performed a quantitative high-throughput screen (Inglese 2006) by using an assay which utilizes a trimethylated peptide substrate corresponding to a fragment of histone H3 (sequence ARKme3STGGK) with detection of the formaldehyde co-product in real time by a formaldehyde dehydrogenase (FDH) coupled reaction. FDH catalyzes oxidation of formaldehyde to formic acid with the concomitant reduction of the non-fluorescent beta-nicotinamide adenine dinucleotide hydrate (NAD+) cofactor to the fluorescent NADH co-product. References: Inglese, J., Auld, D., Jadhav, A., Johnson, R., Simeonov, A., Yasgar, A., Zheng, W. and Austin, C. Proc Natl Acad Sci USA 2006, 103, 11473-11478. N. R. Rose, S. S. Ng, J. Mecinovic, B. M. Lienard, S. H. Bello, Z. Sun, M. A. McDonough, U. Oppermann and C. J. Schofield, J Med Chem, 2008, 51, 7053-7056. Sakurai, M., Rose, N., Schultz, L., Quinn, A., Jadhav, A., Ng, S., Oppermann, U., Schofield, C.J. and Simeonov, A. Mol BioSystems 2009, in press. S. Michael, D. Auld, C. Klumpp, A. Jadhav, W. Zheng, N. Thorne, C. Austin, J. Inglese and A. Simeonov, Assay Drug Dev Technol, 2008, 6, 637-657.\nReagents and Controls: Ferrous ammonium sulfate, (+)-sodium L-ascorbate, beta-nicotinamide adenine dinucleotide hydrate (NAD+), Tween-20, formaldehyde dehydrogenase from P. putida (FDH), and disodium 2-oxoglutarate were from Sigma (St. Louis, MO). Black solid-bottom 384-well or 1,536-well assay plates were from Greiner Bio-One (Monroe, NC). Enzyme was supplied by Prof. Udo Oppermann, SGC-Oxford. The catalytic domain of human JMJD2E (residues 1-337) was produced as an N-terminally His6-tagged protein in E. coli, and purified by Ni-affinity chromatography and size-exclusion chromatography, and stored in HEPES 50 mM/ NaCl 500 mM pH 7.5, as reported in Rose 2008. The trimethylated histone peptide substrate ARK(me3)STGGK was synthesized and HPLC-purified by the Tufts University Core Facility (Boston, MA). Substrate solution (Sakurai 2009) contained 50 uM ARK(me3)STGGK, 0.00025 U/uL FDH, 50 uM 2-oxoglutarate, 250 uM NAD+, 1 mM ascorbate, and 10 uM ferrous ammonium sulfate. Controls and plate map: Buffer (150 mM HEPES pH 7.5 containing 0.01% Tween-20) in columns 3 and 4 as negative control (no enzyme) and 100 nM JMJD2E final concentration in columns 1,2, and 5-48. Assay Steps: Enzyme and buffer solutions (3 uL) were dispensed into a 1,536-well Greiner black solid-bottom assay plate. The library compounds (23 nL) were transferred using a Kalypsys pintool equipped with 1,536-pin array. The plate was incubated at room temperature (15 min), and then a 1 uL aliquot of substrate solution was added to initiate the reaction. The plate was transferred to ViewLux imager where an initial reading using standard UV optics (Ex 340 nm, Em 450 nm) was obtained. The plate was then removed from the reader, incubated for 30 minutes at room temperature, and returned to the reader for a second fluorescence reading. A fully automated robotic screening system (Kalypsys Inc, San diego, CA) was used to perform the above steps as described previously (Michael 2008). […]", "values": [
      {"smiles": "COC(=O)CN1CN(c2ccccc2)C2(CCN(Cc3ccc4ccccc4c3)CC2)C1=O", "activity change, negative = inhibition": "inactive: 3.47%"},
      {"smiles": "O=C1NC(=O)N(Cc2cccs2)C(=O)/C1=C/c1ccc(N2CCOCC2)cc1", "Potency": "inconclusive: 28.2 µM [inhibitor, single point]"},
      {"smiles": "CC(C)(O)C1C2OC(=O)C1[C@]1(O)CC3O[C@@]34C(=O)OC2[C@@]14C", "note": "(some centres undefined)", "activity change, negative = inhibition": "inactive: -3.41%"},
      {"smiles": "C/C=C1\\C[N@@+]2(C)CC[C@@]34C(=C(C=O)[C@H]1C[C@H]32)Nc1ccccc14", "Potency": "inconclusive: 12.6 µM [inhibitor, partial curve]"},
      {"smiles": "Oc1cccc2nc3ccccc3nc12", "activity change, negative = inhibition": "inactive: 4.5%"},
      {"smiles": "Cc1cc(OCc2cc(C(=O)O)oc2C)c2c3c(c(=O)oc2c1)CCCC3", "Potency": "inconclusive: 31.6 µM [inhibitor, partial curve]"},
      {"smiles": "CCCCCCCSc1cc(OC)c(CCN(C)C)cc1OC", "activity change, negative = inhibition": "inactive: -13.9%"},
      {"smiles": "CN1CC[C@@]2(C)c3cc(O)ccc3N(C)[C@@H]12", "Potency": "active: 6.31 µM"},
      {"smiles": "CCOc1ccc(-n2c(O)c(C=Nc3ccc(N(CC)CC)cc3)c(=O)[nH]c2=O)cc1", "activity change, negative = inhibition": "inactive: -5.62%"},
      {"smiles": "O=c1[nH]c(=S)n(C2CC2)c(O)c1/C=N/Nc1cccc2ccccc12", "activity change, negative = inhibition": "inactive: 3.18%"},
      {"smiles": "CCCNS(=O)(=O)c1ccc(OCC(=O)N2CCN(Cc3ccc4c(c3)OCO4)CC2)cc1", "activity change, negative = inhibition": "inactive: 2.35%"},
      {"smiles": "CC[C@]12CCCN3CCC4(c5ccccc5NC4C(C(=O)O)C1)C32", "note": "(some centres undefined)", "Potency": "inconclusive: 39.8 µM [inhibitor, single point]"},
      {"smiles": "CN1CCc2c([nH]c3ccccc23)C1", "Potency": "inconclusive: 39.8 µM [inhibitor, single point]"},
      {"smiles": "CC(C)CN(C(=O)CN1CC=C(c2ccccc2)CC1)c1c(N)n(CC(C)C)c(=O)[nH]c1=O", "Potency": "active: 28.2 µM"},
      {"smiles": "C/C(=C\\[C@@H](N)C(=O)O)CP(=O)(O)O", "Potency": "inconclusive: 20 µM [inhibitor, partial curve]"},
      {"smiles": "CC(=O)NC(Cc1ccc(N(CCCl)CCCl)cc1)C(=O)NCC(=O)NCC(=O)O", "note": "(centres undefined)", "Potency": "inconclusive: 28.2 µM [inhibitor, single point]"},
      {"smiles": "COCCNC(=O)c1c(N)n(Cc2ccco2)c2nc3ccccc3nc12", "Potency": "inconclusive: 28.2 µM [inhibitor, partial curve]"},
      {"smiles": "COc1cc(/C=C2/C(=O)NC(=O)N(c3ccc(C)cc3)C2=O)cc(OC)c1OC", "Potency": "inconclusive: 39.8 µM [inhibitor, single point]"},
      {"smiles": "O=P(Nc1ccccc1)(Oc1ccccc1)Oc1ccccc1", "Potency": "inconclusive: 35.5 µM [inhibitor, single point]"},
      {"smiles": "O=c1cccc2n1CC1CC2CN(CCO)C1", "note": "(centres undefined)", "activity change, negative = inhibition": "inactive: -18.8%"},
      {"smiles": "CC(=O)Nc1ccccc1C(=O)OCC(=O)c1ccccc1Cl", "activity change, negative = inhibition": "inactive: 0.809%"},
      {"smiles": "COCCCNC(=O)c1c(N)n(Cc2ccco2)c2nc3ccccc3nc12", "Potency": "inconclusive: 20 µM [inhibitor, partial curve]"},
      {"smiles": "C[C@]12CCC(=O)C=C1CCc1ccc(O)cc12", "activity change, negative = inhibition": "inactive: 11.3%"},
      {"smiles": "C[n+]1c(-c2ccccc2)cc(-c2ccc(Cl)cc2)cc1-c1ccccc1", "Potency": "inconclusive: 28.2 µM [inhibitor, partial curve]"},
      {"smiles": "CC(C)Cc1[nH]c(=O)c(C#N)c2c1CCC2", "Potency": "inconclusive: 28.2 µM [inhibitor, partial curve]"},
      {"smiles": "CN1CCC(c2c[nH]c3ccccc23)C1", "note": "(centres undefined)", "Potency": "active: 22.4 µM"},
      {"smiles": "CCc1ccccc1N1C(=O)CC(=O)NC1=O", "activity change, negative = inhibition": "inactive: -22%"},
      {"smiles": "CN(C)c1ccc(/C=C/C=C/c2sc3ccccc3[n+]2C)cc1", "activity change, negative = inhibition": "inactive: -0.954%"},
      {"smiles": "Cc1ccc(N2C(=O)NC(=O)/C(=C/c3ccoc3)C2=O)cc1", "Potency": "inconclusive: 31.6 µM [inhibitor, single point]"},
      {"smiles": "CCCCC(=O)N/N=C/c1c(O)n(CCc2ccccc2)c(=O)[nH]c1=O", "Potency": "inconclusive: 39.8 µM [inhibitor, single point]"},
      {"smiles": "CNC(=O)[C@H]1C[C@@H]1[C@H](NP(=O)(c1ccccc1)c1ccccc1)c1ccccc1", "activity change, negative = inhibition": "inactive: 2.95%"},
      {"smiles": "COc1ccc(/C=C2\\C(=O)NC(=S)N(C)C2=O)cc1C", "Potency": "inconclusive: 39.8 µM [inhibitor, single point]"},
      {"smiles": "Fc1ccc2c(c1)nnn2C1CCN(Cc2c(Cl)cccc2Cl)CC1", "activity change, negative = inhibition": "inactive: -1.64%"},
      {"smiles": "COc1cccc(NP(=O)(Oc2ccc(Cl)cc2)Oc2ccc(Cl)cc2)c1", "activity change, negative = inhibition": "inactive: 4.29%"},
      {"smiles": "O=C(/C=C\\c1ccc(Cl)cc1)N[C@@]12CCC(=O)[C@@H]3Oc4c(O)ccc5c4[C@@]31CCN(CC1CC1)[C@@H]2C5", "activity change, negative = inhibition": "inactive: -18.6%"},
      {"smiles": "CCOc1ccc(-c2cc(C)[n+](CCN(CC)CC)c(-c3ccc(OCC)cc3)c2)cc1", "Potency": "inconclusive: 31.6 µM [inhibitor, single point]"},
      {"smiles": "CC(C)(O)[C@H]1O[C@@H]2CC[C@]3(C)[C@@]4(C)c5[nH]c6ccccc6c5C[C@@H]4CC[C@]3(O)C2=CC1=O", "activity change, negative = inhibition": "inactive: -5.9%"},
      {"smiles": "O=C1NC(=S)N(c2ccccc2)C(=O)C1C(c1ccncc1)C1C(=O)NC(=S)N(c2ccccc2)C1=O", "note": "(centres undefined)", "Potency": "inconclusive: 39.8 µM [inhibitor, single point]"},
      {"smiles": "CCn1ccnc1CN1CCCC(C(=O)c2cc(F)ccc2OC)C1", "note": "(centres undefined)", "Potency": "inconclusive: 31.6 µM [inhibitor, single point]"},
      {"smiles": "CN1C(=O)C(=Cc2ccccc2OCc2ccc(C(=O)O)cc2)C(=O)N(C)C1=O", "Potency": "inconclusive: 28.2 µM [inhibitor, single point]"},
      {"smiles": "CC(N=Cc1c(O)[nH]c(=O)[nH]c1=O)c1ccccc1", "note": "(centres undefined)", "activity change, negative = inhibition": "inactive: 0.891%"},
      {"smiles": "c1ccc(CNc2c3c(nc4ccccc24)CCC3)cc1", "Potency": "inconclusive: 0.891 µM [inhibitor, partial curve, poor fit]"},
      {"smiles": "COc1ccccc1OCC#CCN1CCCC(C)C1", "note": "(centres undefined)", "activity change, negative = inhibition": "inactive: -3.64%"},
      {"smiles": "O=C1NC(=O)N(c2ccccc2)C(=O)/C1=C\\c1ccc([N+](=O)[O-])s1", "Potency": "inconclusive: 31.6 µM [inhibitor, single point]"},
      {"smiles": "CCN1CCN(c2cc(N3CCCC3)c([N+](=O)[O-])cc2F)CC1", "activity change, negative = inhibition": "inactive: 3.33%"},
      {"smiles": "C=CCOC(=O)COc1cc(C)cc2oc(=O)c3c(c12)CCC3", "Potency": "inconclusive: 28.2 µM [inhibitor, partial curve]"},
      {"smiles": "CNCCc1ccc(OC)c(OC)c1", "activity change, negative = inhibition": "inactive: 2.93%"},
      {"smiles": "CC(C)(CN)CC(=O)O", "Potency": "inconclusive: 39.8 µM [inhibitor, single point]"},
      {"smiles": "CCn1cc(/C=c2/sc3n(c2=O)C2c4ccccc4OC(C)(N=3)C2C(=O)OC)c(C)n1", "note": "(centres undefined)", "Potency": "inconclusive: 5.01 µM [inhibitor, single point]"}
    ]}
  ]
}
